Reference: PubChem BioAssay AID1347165 (National Center for Advancing Translational Sciences (NCATS), 2019)
Among all 220,000 compounds or so, about 5,700 (2.6%) were called active. Inconclusive results, whose numbers are uncertain, are shown with a selection of clear calls. Calls come from the whole dose curve; as a rule, active = well fitted inhibition curve with a large enough effect; inconclusive = small, poorly fitted or top-dose-only effect; inactive = no such curve, though single readings can be large or run the other way. Where the call is inconclusive, the potency comes from a doubtful curve fit.

Molecular target: Lysine-specific demethylase 5B (Homo sapiens) (UniProt Q9UGL1)
Test: Primary screen for KDM5B Histone Demethylases FDH-coupled qHTS; note: nearly all actives have a fitted effect of over 70% in size
Conditions: FDH-coupled NADH fluorescence (FDH is formaldehyde dehydrogenase); series mostly up to 57.7 µM
Excerpt: Assay Submitter (PI): Qin Yan, Ph.D. (Yale University) and Xiaodong Cheng, Ph.D. (MD Anderson) This project was funded as part of the NCI NEXT Program and Chemical Biology Consortium (CBC) The histone demethylases, KDM5A and KDM5B catalyze the demethylation of lysine 4 on histone H3 (H3K4me3/2). They are overexpressed in a variety of cancers and have been implicated in cancer cell growth, metastasis, drug resistance, and tumor growth. KDM5A is amplified and overexpressed in breast and gastric cancer; and is translocated in leukemia. While KDM5B is highly expressed in human mammary tumors and breast cancer cell lines, but not in normal adult breast tissue. Moreover, knockdown of KDM5B leads to upregulation of tumor suppressor genes, including BRCA1. The goal of this project is to employ qHTS to identify selective small molecule inhibitors of KDM5A/B demethylase activity to better understand the role of KDM5 in cancer and to develop novel therapies. We employed an FDH-coupled assay previously reported by Sakurai et al. to monitor in vitro KDM5 demethylase activity. Compounds showing dose response inhibition are re-acquired, validated, and tested for non-specific interference with the formaldehyde dehydrogenase (FDH) counterscreen. True inhibitors are validated using an AlphaLisa secondary screen, which employs an H3K4(me2-1)-specific antibody to monitor demethylation of a biotin-tagged H3K4(me3) peptide substrate. Inhibitors are profiled against KDM4A and KDM6A AlphaLisa counterscreens to determine level of demethylase specificity; and against the TruHits counterscreen to eliminate non-specific inhibitory activity on the AlphaLISA detection method. Selective inhibitors identified from the primary and secondary screening are tested in cells using immunofluorescence to monitor global H3K4 tri-methylation as a measure of KDM5A/B inhibition. Early Translation Branch (ETB) National Center for Advancing Translational Sciences (NCATS), Rockville, MD National Institute of Health (NIH), Bethesda, Maryland [1] Sakurai, M et al. A miniaturized screen for inhibitors of Jumonji histone demethylases. Mol Biosyst. 2010 Feb;6(2):357-64. doi: 10.1039/b912993f. Epub 2009 Oct 8.
Materials: 1536-well Black, solid bottom, medium binding assay plate is purchased from Greiner Bio-one. The enzymes (KDM5B) and substrate (H3K4me3/2) are provided by the principal investigators. The buffer for this assay is composed of 50mM HEPES at pH 7.5 with 0.01% Tween-20. FDH coupled Demethylase qHTS protocol: Three microliter enzyme mix (buffer + 200nM KDM5BDeltaAP final concentration) is dispensed into the assay plate using the BioRAPTR Flying Reagent Dispenser (FRD; […]). Compound (at various final concentration) and control solution is pin transferred to the assay plate using the Kalypsys 1536-pin tool apparatus. The assay plate is incubated for 10 min at room temperature followed by addition of 1uL substrate mix (buffer + 100uM ascorbic acid, 50uM ferrous ammonium sulfate, 12.5uM H3K4Me3, 25uM a-ketoglutarate, 0.25 mM NAD+, 0.25 U/mL formaldehyde dehydrogenase using the FRD yielding a total reaction volume of 4 uL. Initial fluorescence (Read1) is detected using the PerkinElmer ViewLux plate reader equipped with 340 nm excitation and 450 nm emission filters. The final fluorescence (Read2) signal is obtained after 30 min of room temperature incubation. Delta RFU is calculated (Read2 - Read1) and is used to generated dose response curves.
Potency is the fitted concentration of half-maximal effect; tags give direction and shape of the fitted curve.

Chain of UniProt Q9UGL1 (Q9UGL1 whole entry, looked up): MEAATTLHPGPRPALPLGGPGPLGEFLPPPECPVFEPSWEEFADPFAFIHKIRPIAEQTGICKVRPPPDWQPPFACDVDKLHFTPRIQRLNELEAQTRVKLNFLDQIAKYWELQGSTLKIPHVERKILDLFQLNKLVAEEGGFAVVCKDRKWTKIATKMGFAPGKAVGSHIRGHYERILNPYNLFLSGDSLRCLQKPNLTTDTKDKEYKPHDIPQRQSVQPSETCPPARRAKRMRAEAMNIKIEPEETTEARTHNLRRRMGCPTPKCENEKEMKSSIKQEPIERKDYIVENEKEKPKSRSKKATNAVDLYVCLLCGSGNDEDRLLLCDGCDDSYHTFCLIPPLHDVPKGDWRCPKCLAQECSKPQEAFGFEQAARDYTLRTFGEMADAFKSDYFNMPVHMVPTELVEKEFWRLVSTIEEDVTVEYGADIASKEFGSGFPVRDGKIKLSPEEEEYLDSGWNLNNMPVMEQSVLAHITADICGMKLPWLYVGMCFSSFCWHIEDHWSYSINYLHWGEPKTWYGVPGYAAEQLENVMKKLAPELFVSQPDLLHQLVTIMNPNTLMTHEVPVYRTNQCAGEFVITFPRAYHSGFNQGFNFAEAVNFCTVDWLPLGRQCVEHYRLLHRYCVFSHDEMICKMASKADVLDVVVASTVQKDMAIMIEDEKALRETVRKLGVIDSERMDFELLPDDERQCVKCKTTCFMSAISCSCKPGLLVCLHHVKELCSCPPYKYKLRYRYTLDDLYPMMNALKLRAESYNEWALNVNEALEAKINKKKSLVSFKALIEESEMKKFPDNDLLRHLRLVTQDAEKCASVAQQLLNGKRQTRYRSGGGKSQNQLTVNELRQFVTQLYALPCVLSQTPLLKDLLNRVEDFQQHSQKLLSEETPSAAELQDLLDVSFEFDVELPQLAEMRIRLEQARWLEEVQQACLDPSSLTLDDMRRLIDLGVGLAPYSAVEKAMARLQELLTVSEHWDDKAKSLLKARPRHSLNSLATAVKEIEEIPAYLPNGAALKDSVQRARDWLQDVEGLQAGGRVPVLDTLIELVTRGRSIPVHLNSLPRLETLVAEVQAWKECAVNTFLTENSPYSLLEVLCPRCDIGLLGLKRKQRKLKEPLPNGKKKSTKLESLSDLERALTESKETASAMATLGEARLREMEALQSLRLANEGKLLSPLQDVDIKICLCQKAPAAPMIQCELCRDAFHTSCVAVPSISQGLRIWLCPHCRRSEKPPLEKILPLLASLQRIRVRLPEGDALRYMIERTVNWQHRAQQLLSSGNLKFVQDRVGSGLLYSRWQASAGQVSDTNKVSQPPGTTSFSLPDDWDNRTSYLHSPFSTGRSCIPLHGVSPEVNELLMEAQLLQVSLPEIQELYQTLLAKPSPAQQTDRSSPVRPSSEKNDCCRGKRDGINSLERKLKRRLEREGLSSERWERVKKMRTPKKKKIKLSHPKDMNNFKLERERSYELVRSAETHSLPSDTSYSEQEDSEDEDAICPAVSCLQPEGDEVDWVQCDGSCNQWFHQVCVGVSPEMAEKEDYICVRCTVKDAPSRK

Row | Structure (SMILES) | Potency
1 | Cn1c(=O)c2sc3c(c2n(CC(=O)NCCc2ccccc2)c1=O)COC(C)(C)C3 | inactive
2 | Cc1ccc(-n2ncc(C(=O)NC3CCCCC3)c2C2CCN(C(=O)OC(C)(C)C)CC2)cc1 | inconclusive: 25.1 µM [inhibitor, partial curve, poor fit]
3 | CCC(CC)(CC(=O)Nc1ccc2oc(C)nc2c1)C(=O)O | inactive
4 | Clc1ccc(-c2ncc(-c3ccccc3)o2)cc1 | inconclusive: 28.2 µM [inhibitor, partial curve, poor fit]
5 | Cc1ccc(NC(=O)Nc2cn(CC(C)C)c(=O)c3ccccc23)cc1N(C)C | inconclusive: 25.1 µM [inhibitor, partial curve, poor fit]
6 | OC[C@@H]1O[C@H](CNCc2cccc(Cl)c2)[C@H](N2CCN(c3ccc(F)cc3)CC2)[C@@H]1O | inconclusive: 35.5 µM [inhibitor, partial curve, poor fit]
7 | COc1ccc(-c2cc(C(C)=O)c(C)n2CCC(=O)NCc2ccc(C)cc2)cc1 | inconclusive: 28.2 µM [inhibitor, single point]
8 | CCOC(=O)c1cc(S(=O)(=O)N2CCN(c3cccc(C)c3C)CC2)[nH]n1 | inconclusive: 14.1 µM [inhibitor, partial curve, poor fit]
9 | CNC(=O)c1c(NC(=O)c2nc(SCc3ccc(C)cc3)ncc2Cl)sc2c1CCCC2 | inconclusive: 10 µM [inhibitor, partial curve, poor fit]
10 | O=C1/C(=C/c2cccc(F)c2)CSc2c(F)cccc21 | inconclusive: 31.6 µM [inhibitor, single point]
11 | COc1nc2nc(CC3CC3)n(C)c2cc1-c1ccc(N2CCOCC2)cc1 | inconclusive: 35.5 µM [inhibitor, partial curve, poor fit]
12 | CCc1ccc(-n2nc3ccc(NC(=O)COc4ccc(OC)cc4)cc3n2)cc1 | inconclusive: 1.12 µM [inhibitor, partial curve, poor fit]
13 | CCc1nn2c(=O)c(S(=O)(=O)Nc3ccc(C(C)C)cc3)c(C)nc2s1 | inconclusive: 31.6 µM [inhibitor, partial curve, poor fit]
14 | CC(C)c1ccc(-c2csc(Nc3ccc(C(=O)O)c(O)c3)n2)cc1 | inconclusive: 39.8 µM [inhibitor, single point]
15 | CN1CCN(c2oc(-c3ccc(Cl)cc3)nc2C#N)CC1 | inconclusive: 1.78 µM [inhibitor, partial curve, poor fit]
16 | CCOc1ccc(NCc2nc3ccccc3n2CCOc2ccc(C)cc2)cc1 | inconclusive: 35.5 µM [inhibitor, single point]
17 | CC1(C)C2CC[C@]1(C)C(=O)N(CCCCN1CCN(c3ccccn3)CC1)C2=O | inconclusive: 25.1 µM [inhibitor, partial curve, poor fit]
18 | Cc1cccc2cc(-c3noc(-c4ccc(C(C)(C)C)cc4)n3)c(=O)[nH]c12 | inactive
19 | Cc1ccc(CCNC(=O)c2ccc3c(c2)nc2n3CCOC2)cc1 | inconclusive: 28.2 µM [inhibitor, single point]
20 | Cc1ccc(C(CNC(=O)c2sc3ccccc3c2Cl)N2CCCC2)o1 (configuration not stated) | inactive
21 | Cc1ccc(OCCCOc2ccc(Cl)cc2/C=N/NC(=O)c2ccccc2)cc1C | inconclusive: 35.5 µM [inhibitor, single point]

Row | Structure (SMILES) | Potency
22 | COCCNC(=O)c1ccc(-c2nc(CS(=O)(=O)c3ccccc3)c(C)o2)cc1 | inconclusive: 14.1 µM [inhibitor, partial curve, poor fit]
23 | Nc1nc2ccccc2[nH]1 | inconclusive: 28.2 µM [inhibitor, single point]
24 | OCc1cccc(-c2cc(C3=CCOCC3)c3cncn3c2)c1 | active: 31.6 µM
25 | COc1ccccc1CNC(=O)CSc1nnc(C)c2c(C)n(-c3ccccc3)nc12 | inconclusive: 15.8 µM [inhibitor, partial curve, poor fit]
26 | Cc1cc2nc(/C(C#N)=C/c3cccc(C(F)(F)F)c3)[nH]c2cc1C | inconclusive: 14.1 µM [inhibitor, partial curve, poor fit]
27 | CCn1ncc2c(C(=O)Nc3cccc(OC)c3)cc(-c3cccs3)nc21 | inconclusive: 22.4 µM [inhibitor, single point]
28 | CC(=O)NCCNC(=S)Nc1ccc(F)cc1 | inactive
29 | CCn1ccc(C(=O)N2CCC(Oc3ccccc3-c3nc(C4CCOCC4)no3)C2)n1 (configuration not stated) | inconclusive: 25.1 µM [inhibitor, partial curve, poor fit]
30 | Cc1cccc2c(C(=O)NCCN3CCOCC3)cc(-c3ccc(Cl)cc3)nc12 | inconclusive: 39.8 µM [inhibitor, single point]
31 | CCC(=O)N1C[C@@H]2CCCN3CCC[C@@H]([C@H]23)[C@H]1CCCC(=O)NCC1CC1 | inconclusive: 35.5 µM [inhibitor, partial curve]
32 | COc1ccc2[nH]c(=O)c(CCC(=O)O)cc2c1 | active: 28.2 µM
33 | O=C1Nc2ccccc2CN(CC2CCOCC2)C12CCNCC2 | inconclusive: 56.2 µM [inhibitor, partial curve, poor fit]
34 | CS(=O)(=O)N1CCc2cc(C(=O)Nc3ccc(C(F)(F)F)cc3)ccc21 | inconclusive: 3.55 µM [inhibitor, partial curve, poor fit]
35 | CC(C)(C)CC(=O)N1CCN(C2CCCCC2)CC1 | inactive
36 | Cc1cc(C)n(-c2nc3cc(Cl)ccc3nc2N2CCN(c3ccccc3F)CC2)n1 | inconclusive: 31.6 µM [inhibitor, partial curve, poor fit]
37 | NC(=O)C(Sc1ncccc1Cl)c1ccccc1 (configuration not stated) | inactive
38 | O=C1N(c2ccccc2)c2ccccc2C12CCN(CC1CCCCC1)C2 (configuration not stated) | inactive
39 | O=C(c1ccccc1OCc1nc(-c2ccccc2)no1)N1CCN(Cc2ccccc2)CC1 | inconclusive: 39.8 µM [inhibitor, single point]
40 | CC(C)CCNC(=O)C(Cc1ccccc1)NS(=O)(=O)c1ccc2c(c1)c(=O)n(C)c(=O)n2C (configuration not stated) | inconclusive: 3.16 µM [inhibitor, partial curve, poor fit]
41 | Cc1ccc(CNC(=O)c2ccccc2NC(=O)Cn2cnc3c2c(=O)n(C)c(=O)n3C)cc1 | inactive
42 | CC(Oc1ccc(F)cc1)C(=O)Nc1ccc(-c2nc3ccccc3o2)cc1 (configuration not stated) | inconclusive: 25.1 µM [inhibitor, partial curve, poor fit]

Row | Structure (SMILES) | Potency
43 | CCCOc1ccc(-c2cc(C(F)(F)F)c(C#N)c(SCCC(=O)O)n2)cc1 | inconclusive: 2.51 µM [inhibitor, full curve, poor fit]
44 | COc1ccc(S(=O)(=O)N2CCC(C(=O)Nc3cc(C(F)(F)F)ccc3Cl)CC2)cc1 | inactive
45 | CN(CCc1ccccc1)Cc1cc(C(=O)N2CCOc3ccccc3C2)no1 | inactive
46 | Cc1nc(N2CCC(NC(=O)CC3CCCCC3)CC2)cc(C(F)(F)F)n1 | inconclusive: 25.1 µM [inhibitor, partial curve, poor fit]
47 | COc1ccc(Cl)cc1NC(=O)Cn1c(N2CCN(c3ccccc3)CC2)nc(C)cc1=O | inconclusive: 28.2 µM [inhibitor, single point]
48 | COCCn1c(-c2ccc(OCc3ccc(F)cc3)c(OC)c2)nc2c1c(=O)[nH]c(=O)n2CC(C)C | inconclusive: 2 µM [inhibitor, full curve, poor fit]
49 | COc1ccc(C)cc1Nc1ncnc2c1c(-c1ccccc1)cn2-c1ccc(C)cc1 | inconclusive: 25.1 µM [inhibitor, partial curve, poor fit]
50 | Cc1ccc2[nH]c(C(=O)NCc3cccs3)cc2c1 | inconclusive: 2 µM [inhibitor, full curve, poor fit]
51 | CCOc1cc(-c2ccc(OC(=O)c3ccccc3)c(OC)c2)cc(=O)c2c(C)oc(C)c12 | inconclusive: 14.1 µM [inhibitor, partial curve, poor fit]
52 | CCOCCn1ccc2c(OCC(=O)Nc3cccc(F)c3)cccc2c1=O | inconclusive: 35.5 µM [inhibitor, single point]
53 | Cc1oc(-c2cccs2)nc1C(=O)N1CCOCC1 | inconclusive: 28.2 µM [inhibitor, single point]
54 | Cc1ccc(C(=O)N2CCCN(C)c3ccccc32)cc1C | inactive
55 | COC(=O)CNc1cc(C(=O)OC)cc(C(=O)OC)c1 | inconclusive: 25.1 µM [inhibitor, partial curve, poor fit]
56 | CC(C)CCN1CCC(C2CCN(Cc3cccnc3)CC2)C1 (configuration not stated) | inconclusive: 22.4 µM [inhibitor, single point]
57 | Cc1ccc(C)c(C(=O)/C=C/Nc2ccc(N(C)C)cc2)c1 | inconclusive: 10 µM [inhibitor, partial curve, poor fit]
58 | CCCCC(=O)Nc1ccc2c(c1)nc1n2CCN(CCOC)C1 | inconclusive: 35.5 µM [inhibitor, partial curve, poor fit]
59 | CCOc1ccc(C(=O)Nc2ccc3nc(N4CCN(CC)CC4)cc(C)c3c2)cc1 | inconclusive: 39.8 µM [inhibitor, single point]
60 | CCOc1ccc(CN2CCN(C3CCN(C(C)C)CC3)CC2CCO)cc1 (configuration not stated) | inconclusive: 22.4 µM [inhibitor, partial curve, poor fit]
61 | Cc1cc(OC(C)C(=O)NC2CC(C)(C)NC(C)(C)C2)c2c(C)c(C)c(=O)oc2c1 (configuration not stated) | inconclusive: 31.6 µM [inhibitor, partial curve, poor fit]
62 | CCOc1ccc2[nH]c(C(=O)N/N=C/c3ccccc3OC)cc2c1 | inconclusive: 35.5 µM [inhibitor, single point]
